Results as given in article PMC4336329 (PLoS ONE, 2015).
About 2,200 (0.71%) of roughly 310,000 compounds showed an effect of 50% or more. Effects have a minus sign here. Some of the results follow.

Target: human ether-à-go-go-related gene (hERG) potassium channel (human, UniProt Q12809)
Assay: primary screen, population patch clamp on CHO cells stably expressing hERG

Sequence of human ether-à-go-go-related gene (hERG) potassium channel (Q12809 whole entry, looked up): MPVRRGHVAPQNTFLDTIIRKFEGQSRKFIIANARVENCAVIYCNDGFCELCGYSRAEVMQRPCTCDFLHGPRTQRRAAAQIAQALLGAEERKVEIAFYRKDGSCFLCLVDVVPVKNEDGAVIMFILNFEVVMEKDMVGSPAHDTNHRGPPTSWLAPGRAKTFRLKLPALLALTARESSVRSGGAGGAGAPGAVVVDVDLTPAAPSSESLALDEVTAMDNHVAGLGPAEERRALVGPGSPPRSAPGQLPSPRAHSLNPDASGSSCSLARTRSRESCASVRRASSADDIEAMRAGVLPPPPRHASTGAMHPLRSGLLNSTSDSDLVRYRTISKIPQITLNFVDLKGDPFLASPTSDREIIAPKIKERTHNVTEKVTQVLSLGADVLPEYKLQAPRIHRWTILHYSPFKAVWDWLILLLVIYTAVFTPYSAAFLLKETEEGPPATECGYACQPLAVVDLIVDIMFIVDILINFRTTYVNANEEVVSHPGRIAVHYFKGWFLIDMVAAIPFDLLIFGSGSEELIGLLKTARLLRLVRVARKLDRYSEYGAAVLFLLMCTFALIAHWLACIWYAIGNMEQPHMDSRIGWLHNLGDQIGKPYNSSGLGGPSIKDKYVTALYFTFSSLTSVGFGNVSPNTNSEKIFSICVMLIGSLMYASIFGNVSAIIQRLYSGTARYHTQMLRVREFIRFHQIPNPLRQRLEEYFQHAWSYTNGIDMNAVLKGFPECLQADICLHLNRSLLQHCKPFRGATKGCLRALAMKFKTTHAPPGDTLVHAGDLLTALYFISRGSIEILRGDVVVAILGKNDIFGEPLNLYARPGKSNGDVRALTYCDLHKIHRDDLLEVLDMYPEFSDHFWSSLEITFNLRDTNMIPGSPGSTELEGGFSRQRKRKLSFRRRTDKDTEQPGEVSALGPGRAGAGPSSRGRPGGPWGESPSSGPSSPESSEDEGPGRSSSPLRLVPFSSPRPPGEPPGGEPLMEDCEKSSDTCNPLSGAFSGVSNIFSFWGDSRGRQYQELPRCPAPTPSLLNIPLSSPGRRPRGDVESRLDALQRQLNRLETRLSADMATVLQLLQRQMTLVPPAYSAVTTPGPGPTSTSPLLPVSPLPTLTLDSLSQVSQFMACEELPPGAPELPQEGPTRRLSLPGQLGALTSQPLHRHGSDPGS

First: Cc1cc(C)c2c(=O)n(CC(=O)NC3CCCC3)sc2n1
Second: COc1ccccc1N(CC(=O)NC1CCCCC1)S(C)(=O)=O
The “hERG current change (%, negative = inhibition) at 1uM” value of the first is lower: 12.1% for the first, 21.4% for the second.

First: CCOC(=O)c1oc2ccccc2c1NC(=O)c1cc(OC)cc(OC)c1
Second: Cc1cc(C(=O)Nc2ccc(OCc3ccccc3)cc2)c(C)o1
The “hERG current change (%, negative = inhibition) at 1uM” value of the first is lower: 6.96% for the first, 9.28% for the second.

Going from O=C(CS(=O)c1cccc(C(F)(F)F)c1)Nc1ccc(Cl)cc1Cl (stereo not drawn) to Cc1nc2ccccn2c1C(=O)NNC(=O)Nc1cccc(C(F)(F)F)c1, the “hERG current change (%, negative = inhibition) at 1uM” value falls from 9.06% to 5.42%.

Compared with CN(C)S(=O)(=O)c1cccc(C(=O)c2nccn2C)c1, CCN(CC(=O)NCc1cccs1)S(=O)(=O)c1cccc(Br)c1 is higher in “hERG current change (%, negative = inhibition) at 1uM” value: 6.54% for the first, 11.9% for the second.

First: Cc1ccc(NC(=O)CN2CCCCC2)c2c1CC(C)(C)O2
Second: Cc1cccc(C)c1NC(=O)C(=O)NCCCN1CCOCC1
The “hERG current change (%, negative = inhibition) at 1uM” value of the first is lower: 6.6% for the first, 11.7% for the second.

Going from O=C(Cn1nnc(N2CCCC2)n1)N/N=C/c1ccc(Cl)cc1 to Cn1c(Cn2c(=O)sc3ccccc32)nnc1SCC(=O)N1CCCC1, the “hERG current change (%, negative = inhibition) at 1uM” value falls from 10.5% to 3.07%.

Going from O=C(O)c1cc2ccccc2c2cc(Br)ccc12 to Cc1ccc(C(=O)NNC(=S)Nc2cccc3ccccc23)s1, the “hERG current change (%, negative = inhibition) at 1uM” value falls from 17.1% to 16.1%.

Compared with N#Cc1c(N2CCOCC2)nc(N)c2c(N)nc3c(c12)CC(CCl)O3 (stereo not drawn), O=C1C(Cl)=C(N2CCOCC2)C(=O)N1c1ccccc1 is lower in “hERG current change (%, negative = inhibition) at 1uM” value: 13% for the first, 9.44% for the second.

Compared with O=C(NCCn1ccc2ccccc21)C1CCCCC1, COc1ccc(CNC(=O)CN(C2CCCCC2)S(C)(=O)=O)cc1 is lower in “hERG current change (%, negative = inhibition) at 1uM” value: 9.47% for the first, -0.49% for the second.

Compared with O=c1sc2ccccc2c(N2CCCC2)c1[N+](=O)[O-], COc1ccccc1N1CCN(C(=O)Cc2c(C(=O)O)[nH]c3ccc(Cl)cc23)CC1 is lower in “hERG current change (%, negative = inhibition) at 1uM” value: 11% for the first, 10.7% for the second.

Compared with CCN1N=C(c2ccccc2)CCC1=O, O=C(CSc1ccccc1)Nc1cccnc1 is higher in “hERG current change (%, negative = inhibition) at 1uM” value: 12.4% for the first, 22.1% for the second.

Going from CCOC(=O)C1CCN(C(=O)c2ccc(N3CCOCC3)c([N+](=O)[O-])c2)CC1 to COC(=O)C1=C(c2ccccc2)C[C@@H]2CC[C@H]1N2C(=O)N1CCC(C)CC1, the “hERG current change (%, negative = inhibition) at 1uM” value rises from -5.14% to 6.57%.

Compared with CCOC(=O)c1ccc(NC(=O)CSc2nnc(CNC(=O)c3c(F)cccc3Cl)o2)cc1, CCOC(=O)c1ccc(NC(=O)CC2Sc3ncnn3C2=O)cc1 (stereo not drawn) is higher in “hERG current change (%, negative = inhibition) at 1uM” value: 5.76% for the first, 19% for the second.

First: CC(C)NC(=O)CN1CCC(O)(c2ccccc2)CC1
Second: CCCc1[nH]nc2c1C1(CCN(C(=O)OCc3ccccc3)CC1)C(C#N)=C(N)O2
The “hERG current change (%, negative = inhibition) at 1uM” value of the first is higher: 10.6% for the first, 8.08% for the second.

Going from COCC(=O)N1CCC(Oc2ccc(C(=O)N(C)CCCC3CCCC3)cc2)CC1 to Cc1ccc(C(C)(C)NC(=O)C2CCC(=O)N(CC3CCCCC3)C2)cc1 (stereo not drawn), the “hERG current change (%, negative = inhibition) at 1uM” value falls from 19.3% to 17.5%.

Going from COc1cc(Br)c(CC(=O)O)cc1OC to COc1cc(OC)c2cc[nH]c2c1, the “hERG current change (%, negative = inhibition) at 1uM” value rises from -2.8% to 17.1%.

First: O=C(CSc1nnc(-c2cccs2)n1Cc1ccccc1)N1CCc2ccccc2C1
Second: O=C(NC(c1ccccc1)c1ccccc1)c1ccc(CO)cc1
The “hERG current change (%, negative = inhibition) at 1uM” value of the first is higher: 6.49% for the first, -3.21% for the second.

First: Cc1cc(-c2csc(N)n2)c(C)n1CCC(C)C.Cl
Second: Cc1cccc(NC(=S)NCCC(C)C)c1
The “hERG current change (%, negative = inhibition) at 1uM” value of the first is lower: 5.16% for the first, 10.2% for the second.

First: CCOc1cc(S(=O)(=O)N(CC)CC)ccc1F
Second: CCN(CC)C(=N)N1c2ccccc2CCC1C.Cl (stereo not drawn)
The “hERG current change (%, negative = inhibition) at 1uM” value of the first is lower: 3.67% for the first, 9.27% for the second.

First: O=C(c1ccc(COc2ccc(Br)cc2)o1)N1N=C(C(F)F)CC1(O)C(F)F (stereo not drawn)
Second: COc1ccc(CNC(=O)c2sccc2C)cc1
The “hERG current change (%, negative = inhibition) at 1uM” value of the first is lower: 13.4% for the first, 16% for the second.

First: Cc1nc(-c2cc(C#N)c(Sc3cccc(C(F)(F)F)c3)nc2C)cs1
Second: Cc1onc(-c2ccccc2Cl)c1C(=O)Nc1nnc(-c2ccc(Cl)cc2Cl)s1
The “hERG current change (%, negative = inhibition) at 1uM” value of the first is lower: 6.52% for the first, 23% for the second.

Going from COc1cc(NC(=O)c2ccc(NC3=NC4CS(=O)(=O)CC4S3)cc2)cc(OC)c1OC (stereo not drawn) to CCC(C)N(C(=O)COc1ccc(NC(C)=O)cc1)C1CCS(=O)(=O)C1 (stereo not drawn), the “hERG current change (%, negative = inhibition) at 1uM” value rises from 8.58% to 21.4%.

Compared with COc1cccc(C(=O)N/N=C(/c2ccccc2)c2ccccn2)c1, O=C(c1ccccc1)N1CCN(C(=O)c2ccccc2)C1c1ccccc1 is lower in “hERG current change (%, negative = inhibition) at 1uM” value: 15.7% for the first, 8.71% for the second.

First: Cc1cc(OCC(=O)N(C)Cc2ccccc2)cc(C)c1Cl
Second: CCOC(=O)C1(Cc2cccc(Cl)c2)CCCN(C(=O)c2ccoc2C)C1 (stereo not drawn)
The “hERG current change (%, negative = inhibition) at 1uM” value of the first is higher: 4.53% for the first, -21.7% for the second.

Going from C[C@]12CCC(=O)C=C1CC[C@@H]1[C@@H]2[C@@H](O)C[C@]2(C=O)[C@@H](C(=O)CO)CC[C@@H]12 to O=C(O)CC1(CC(=O)N2CCOCC2)CCCC1, the “hERG current change (%, negative = inhibition) at 1uM” value rises from 10.1% to 11.2%.

Compared with O=C1NC(=S)N(c2ccccc2)C(=O)C1C(c1ccncc1)C1C(=O)NC(=S)N(c2ccccc2)C1=O (stereo not drawn), O=C(NCCc1ccccn1)c1n[nH]c(=O)c2ccccc12 is lower in “hERG current change (%, negative = inhibition) at 1uM” value: 13.3% for the first, -13% for the second.

Going from Cc1nn(C)c(C(=O)NC2C3CC4CC(C3)CC2C4)c1Cl (stereo not drawn) to Cc1cccc(/C=N/NC(=O)c2ccc(NC(=O)c3ccc(Cl)cc3)cc2)n1, the “hERG current change (%, negative = inhibition) at 1uM” value rises from 8.83% to 17.9%.

Going from CCNCC1(c2ccc(OC)c(OC)c2)CCCC1.Cl to CCCCOc1ccc(NC2=NC3(CCCCC3)N=C(N)N2)cc1, the “hERG current change (%, negative = inhibition) at 1uM” value rises from 7.56% to 17.1%.

Going from COc1ccc(CN2C(=O)c3cccnc3C2Nc2ccc(C)cc2)cc1 (stereo not drawn) to CCOCCCNC(=O)c1c[nH]c2cc(OC)ccc2c1=O, the “hERG current change (%, negative = inhibition) at 1uM” value falls from 8.57% to 8.14%.

Going from C/C(CC(=O)NC(C)(C)C)=N\NC(N)=S to COCC(=O)N(C)c1nnc(-c2ccc([N+](=O)[O-])cc2)s1, the “hERG current change (%, negative = inhibition) at 1uM” value falls from 13.5% to 8.51%.
